# Experimental data as given in the supplement of paper PMC11417369.
# ± gives the standard deviation of the averaged measurements. The list shows a part of the results.
# System: PfAP2-G AP2 domain (GST-tagged)
# Assay: gcPBM binding intensity (ln(normalized median fluorescence intensity)); higher = stronger DNA binding
# Summary of the method: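 Probes on an Agilent 4 × 180k array were primer-extended, double-stranded and 36 bp long, taken from intergenic genomic regions, with negative controls added. GST-tagged P. falciparum DNA-binding domains from E. coli, about 25 μg on average, were applied to the array for 1 h in 1× PBS containing 1% milk, 0.2 mg/ml BSA, 0.5% salmon testes DNA and 0.03% Triton X-100. Binding intensity, obtained after Alexa488 anti-GST antibody detection and a 488 nm scan, is the highest Masliner-normalised natural-log median intensity across replicate spots of either probe orientation.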
row,Sequence,gcPBM binding intensity (ln)
1,AAAAATGAAAGTAAGACATGCATGGAATTTTTTTTA [TGCATGCA_site347],9.73 ± 0.28
2,ATATATATATATGTATGTACGTATGTATTTACTGCT [XGTACX_site3839],11.3 ± 0.86
3,GAAGTAATTTCATATACACACATATACATACATACA [CACACA_site6753],10.3 ± 0.19
4,TTCATACATATTTGAAGTACATTTAAAAATGTCCTT [XGTACX_site747],11.3 ± 0.56
5,TCCAATATATTTATGAGTACTTATAAATTATACGTT [XGTACX_site742],11.6 ± 0.98
6,TTTGAATAAAAACAAAAAATTAAATTAAATTAAATA [CACACA_negctrl_site312],9.53 ± 0.24
7,TATTTATAATTATAATAATATATATATATATATATA [TGCATGCA_negctrl_site173],9.82 ± 0.42
8,ATTGTGTTAATAAAATGTACATTTTCTCTACATTAA [XGTACX_site2766],11 ± 0.57
9,TTCTTACATGAGTGTACACACTTTTTTTCAGAAAAT [CACACA_site4215],11.7 ± 1
10,GGTGGGGAGGAGTAATGTACAAATTAACATATTATG [XGTACX_site6666],11.3 ± 0.77
11,AATAGTCGGGTGCATACACACCTTAAATATAATATA [CACACA_site8271],10.2 ± 0.25
12,TTATAAAATATTTATGCATGTGAAGAATATTATAAA [TGCATGCA_site1047],9.94 ± 0.014
13,GAAAAAAGTATCAAGGTGCGTATATACATCAAAATA,10.8 ± 0.64
14,TATATATTATAAAATTGTACATATATTAAATTTTTT [XGTACX_site5852],10.8 ± 0.48
15,CATTTATATAAAAGAACACACATATAAAATATTATT [CACACA_site3601],10.1 ± 0.11
16,TTTTTTTTTTAATTGGGTACATATATAATTTAAGAA [XGTACX_site2732],11.3 ± 0.79
17,AAGATACCAATGAAATGTACATATATATAAATATAA [XGTACX_site2135],10.9 ± 0.42
18,CAAAACAAAACGTATGCACACAATTAAAATATTAAA [CACACA_site5815],10.2 ± 0.29
19,AAATGTTGAGCAGTACAAAAAAAAAAAAAAAAAAAA [GTGCAC_negctrl_site518],10.7 ± 0.83

row,Sequence,gcPBM binding intensity (ln)
1,ATATAATATATTTTTGAACACACAATATATATATAT [CACACA_site9368],10.1 ± 0.41
2,AGCAAAACATAAAATAGTACACATTTAACAAAAAAA [XGTACX_site2921],11.4 ± 0.71
3,AAAAGAACAATGAAGTGTACTAATAATTATTTATGT [XGTACX_site6649],11.3 ± 0.79
4,TTTTATCATCTTTTTACATTATGTATAAATATTTTC [CACACA_negctrl_site206],10.025 ± 0.007
5,TAACTAATATATAAAACACACATCATAAAAATATAA [CACACA_site768],9.955 ± 0.078
6,TTTTGTTGAAAAGTAAGATATTCCAACATGTTTTTA [CACACA_negctrl_site391],9.88 ± 0.014
7,ATATCATTTTCCTGCACACATAAATTTATATAATAT [CACACA_site1048],10.4 ± 0.23
8,ACACATAAATGAATAAATAAATAAATATAAATATAA [CACACA_negctrl_site1784],9.675 ± 0.007
9,TACATATTGATATATACACACAAAAAAATAAATTCT [CACACA_site6198],9.86 ± 0.028
10,ACCTTAATAAAAAAAAGTACAAACATGTTCAAATTG [XGTACX_site1556],11.5 ± 0.95
11,ATATATTGCACTTTTTGTACATAATGAAAAATTTTT [XGTACX_site8223],11.1 ± 0.56
12,CATACACCCATACATACACACATACAGATATATATA [CACACA_site5123],10.2 ± 0.29
13,AATTCGTACCTCATTTGTACATATATATATATATAT [XGTACX_site5513],11.3 ± 0.69
14,TTTTTTATAGTACATTACCAAAAAAAAAAAAAAAAA [GTGCAC_negctrl_site549],11.1 ± 0.97
15,CTTTTATTTTATTTTAGTACGCAACATTCTCTATAT [XGTACX_site7279],11.3 ± 0.73
16,TATTTATTTAAAAATTGTACGTAGGATTATACACTT [XGTACX_site286],11.2 ± 0.86
17,ATATAAATATTATAATGTACATATAATATATTTATT [XGTACX_site5212],11 ± 0.49
18,TCACCATATAAACGTGCACACTACAAAAATATATAA [CACACA_site5413],10.6 ± 0.61
19,ATCTCTGTATGTTAGACACACATATTTTAATATGTT [CACACA_site4244],10.2 ± 0.16

row,Sequence,gcPBM binding intensity (ln)
1,TAAAATTTGTACATAGTGCAATTTTTTTTTTTTTTT,10.7 ± 0.52
2,TAGTTTTTTATATATTGTACAAATAATATATGATAT [XGTACX_site4220],10.8 ± 0.47
3,AGTGATTATTAATAATGTACATATCTATAAATATAT [XGTACX_site4734],11 ± 0.47
4,TTTTTTTTTTTTTTCTTACAATTTATTGAACAAATG [XGTACX_negctrl_site515],9.73 ± 0.49
5,TATATATTTCATCCTTGTACACATTTGTGTTTACAT [XGTACX_site1132],11.2 ± 0.73
6,GTATTGCATGAGGACACACACAAAAAAAATATAGAT [CACACA_site6500],11.3 ± 0.97
7,ACAATTTACACTTAAACACACAAAAAAAAGTTATAT [CACACA_site7056],10.05 ± 0.021
8,TATCAAAATTGTAATTGTACTTGTAAGTGGATATAT [XGTACX_site5949],11.3 ± 0.88
9,AATAAATAAATATATATATATATATATATATATATA [CACACA_negctrl_site365],9.63 ± 0.48
10,TAAAAATTGAAGCACACACACAAAAGAAATACAATA [CACACA_site1113],10.2 ± 0.11
11,ATATAAAAAAATTGCACACATAAATAAATACAGATA [CACACA_site4806],10.15 ± 0.035
12,TTTTTTTTTACTTGTTGTACTTTTTCAAGGTATTGT [XGTACX_site7778],11.4 ± 0.83
13,AGATAAGATATATACACACACATAAATACGTACAAA [CACACA_site6639],11.6 ± 0.78
14,CTACCTTTAATATATACACACACATAAAAAAAATAT [CACACA_site8548],10.3 ± 0.3
15,ATATATATATATAATAAACACACAAATAGATATAAC [CACACA_site9234],10.065 ± 0.007
16,TATATATATATATATACATGCATACATATACATACA [TGCATGCA_site897],10 ± 0.22
17,AAGAATGTTATTAGTACACACAATTATTATAGAAAT [CACACA_site7714],11.3 ± 0.97
18,AATGTACAAATACGTACACACATATTTATATTTATA [CACACA_site6833],11.6 ± 0.99
